# Out of some 310,000 compounds screened, about 2,200 (0.71%) showed an effect of 50% or more. The effect is printed as a negative number. The list shows a part of the results.
# Target: human ether-à-go-go-related gene (hERG) potassium channel (human, UniProt Q12809)
# Assay: primary screen, population patch clamp on CHO cells stably expressing hERG
# Chain of human ether-à-go-go-related gene (hERG) potassium channel (Q12809 whole entry, looked up): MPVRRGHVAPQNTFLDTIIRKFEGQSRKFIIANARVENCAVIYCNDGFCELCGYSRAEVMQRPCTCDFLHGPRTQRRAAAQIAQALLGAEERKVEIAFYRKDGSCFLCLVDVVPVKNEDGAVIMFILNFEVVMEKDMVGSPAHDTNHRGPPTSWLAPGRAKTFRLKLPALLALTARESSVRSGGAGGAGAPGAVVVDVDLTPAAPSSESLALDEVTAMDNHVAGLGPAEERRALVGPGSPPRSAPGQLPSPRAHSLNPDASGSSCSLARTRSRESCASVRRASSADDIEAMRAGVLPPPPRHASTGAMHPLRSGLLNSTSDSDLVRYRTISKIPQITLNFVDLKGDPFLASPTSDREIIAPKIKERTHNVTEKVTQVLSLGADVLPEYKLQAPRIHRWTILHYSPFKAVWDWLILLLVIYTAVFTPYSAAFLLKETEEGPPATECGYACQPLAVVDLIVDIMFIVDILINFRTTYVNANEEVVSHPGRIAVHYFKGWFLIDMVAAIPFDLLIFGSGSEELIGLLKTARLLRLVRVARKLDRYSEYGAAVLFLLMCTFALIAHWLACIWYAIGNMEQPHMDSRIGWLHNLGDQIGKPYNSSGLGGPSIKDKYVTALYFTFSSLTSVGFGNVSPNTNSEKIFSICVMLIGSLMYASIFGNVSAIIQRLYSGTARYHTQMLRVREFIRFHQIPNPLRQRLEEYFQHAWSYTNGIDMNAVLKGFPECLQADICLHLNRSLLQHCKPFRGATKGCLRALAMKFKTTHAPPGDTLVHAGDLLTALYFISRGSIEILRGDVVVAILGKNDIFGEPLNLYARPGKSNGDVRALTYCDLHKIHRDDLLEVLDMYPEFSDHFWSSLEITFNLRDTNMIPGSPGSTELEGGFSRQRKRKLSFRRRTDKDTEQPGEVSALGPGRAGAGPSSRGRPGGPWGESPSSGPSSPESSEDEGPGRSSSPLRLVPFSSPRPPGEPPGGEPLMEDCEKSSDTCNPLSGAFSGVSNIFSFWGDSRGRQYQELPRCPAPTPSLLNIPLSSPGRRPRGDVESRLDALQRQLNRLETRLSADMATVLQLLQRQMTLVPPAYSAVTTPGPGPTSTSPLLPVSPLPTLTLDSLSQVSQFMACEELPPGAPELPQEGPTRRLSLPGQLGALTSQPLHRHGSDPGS
row,Structure (SMILES),"hERG current change (%, negative = inhibition) at 1uM"
1,COc1ccc(CCC(=O)Nc2nnc(C(C)(C)C)s2)cc1,18.1%
2,CC1CCC(=C(C#N)c2nc(-c3cc4ccccc4oc3=O)cs2)CC1 (centres unmarked),11%
3,CN1CC[n+]2cnc3ccccc3c21.[I-],6.59%
4,COc1ccc(C2c3[nH]c4ccccc4c3C[C@H]3C(=O)N(c4ccccc4C(=O)N4CCC(C(=O)O)CC4)C(=O)N23)cc1 (some centres unmarked),6.39%
5,Cc1ccc(C(=O)O/N=C(\N)Cc2cccs2)c(Cl)c1,10.5%
6,CCn1c(C)nc2cc(C(=O)NNS(=O)(=O)c3ccccc3F)ccc21,9.14%
7,O=C1COc2ccccc2CN1,1.27%
8,CSCCNC(=O)c1cccc(Cl)c1,7.13%
9,Cc1sc2nc(CN3CCOCC3)nc(Cl)c2c1C,9.31%
10,Cc1ccc(N2CC(C(=O)Nc3nnc(C(C)C)s3)CC2=O)cc1 (centres unmarked),-1.03%
11,CCN(CC)C(=O)c1ccc(N(Cc2ccccc2)S(C)(=O)=O)cc1,8.58%
12,O=C(c1ccc(Br)o1)N1CCN(CCc2ccncc2)CC1,-22.4%
13,Cc1c(N=NC2=C(O)CCCC2=O)c(=O)n(-c2ccccc2)n1C,10.9%
14,COC(=O)C1=C(CSc2nncn2C)NC(=O)NC1c1cc(C)ccc1C (centres unmarked),1.2%
15,CCN(CC)CC(O)CCCCCCCCC(=O)OC.Cl (centres unmarked),10.6%
16,CC(Sc1nnc(-c2ccco2)n1-c1ccccc1)C(=O)NCC1CCCO1 (centres unmarked),4.72%
17,O=C(Nc1ccc(Cl)cc1)N1CCCN(Cc2ccccc2F)C1,3.95%
18,CCOC(=O)Cc1nnc(NC(=O)C(CC)Sc2nc(C)cc(=O)[nH]2)s1 (centres unmarked),7.24%
19,O=C(COc1cc(O)c2c(=O)cc(-c3ccccc3)oc2c1)c1ccc(F)cc1,19.9%

row,Structure (SMILES),"hERG current change (%, negative = inhibition) at 1uM"
1,N#Cc1c(-c2cccc(Br)c2)cc(-c2ccco2)[nH]c1=O,14.1%
2,CC(C)(C)C(=O)Nc1ccc(S(=O)(=O)Nc2nccs2)cc1,2.17%
3,NC(=O)[C@@H]1CC2(CC(c3cccc(NC(=O)CC(c4ccccc4)c4ccccc4)c3)=NO2)CN1C(=O)COc1ccc(Cl)cc1 (some centres unmarked),13.4%
4,COc1ccccc1N1CCN(C(=O)C2CCC(Cn3c(=S)[nH]c4ccccc4c3=O)CC2)CC1 (centres unmarked),14.3%
5,COc1cccc(Cn2nnc(C(=O)NCCc3ccc(Cl)cc3)c2N)c1,10.3%
6,Nn1c(SCC(=O)Nc2ccc3c(c2)OCO3)nnc1C1CC1,12.4%
7,O=C(Cc1n[nH]c(=O)c2ccccc12)OCC(=O)c1ccc2c(c1)OCCO2,8.37%
8,CCCCCC(=O)Nc1ccc(C(=O)COC(=O)Cn2cnc3c2c(=O)n(C)c(=O)n3C)cc1,20.8%
9,Cc1sc(NC(=O)c2ccco2)c(CN2CCN(Cc3ccccc3)CC2)c1C,1.36%
10,Cn1c(N)c(C(=O)c2ccc(C#N)cc2)c(=O)n(C)c1=O,19.6%
11,Cc1occc1C(=O)Nc1cccc(Cl)c1Cl,-4.2%
12,CC(c1nc2ccccc2o1)N1C(=O)c2ccccc2C1=O (centres unmarked),5.67%
13,O=C(NC(=S)Nc1ccccc1N1CCOCC1)c1ccc(-c2cc(Cl)ccc2Cl)o1,3.19%
14,COc1ccc(CN(C)S(=O)(=O)c2nnc(NC(=O)c3ccccc3)s2)cc1OC,12.8%
15,Nc1n[nH]c(N)c1N=Nc1ccc(F)cc1,18.5%
16,CC(C)(C)CN1CCN(CC#Cc2ccccc2)CC1CCO (centres unmarked),6.12%
17,O=C(C1=C(O)C(=O)N(CCN2CCOCC2)C1c1cccs1)c1cc2ccccc2o1 (centres unmarked),10.9%
18,O=C(Cn1ccc2cc(S(=O)(=O)N3CCCC3)ccc21)NCCc1ccccc1,8.33%
19,CN(C)S(=O)(=O)c1cccc(C(=O)Nc2ccc3c(c2)CCC3)c1,-7.72%

row,Structure (SMILES),"hERG current change (%, negative = inhibition) at 1uM"
1,O=C(Cc1ccsc1)Nc1cc(F)ccc1F,15.8%
2,CCOC(=O)COc1ccc(/C=C2/SC(=Nc3ccccc3)N(Cc3cccnc3)C2=O)cc1OC,8.74%
3,COc1ccc(CNC(=O)C(=O)NCC2OCCN2S(=O)(=O)c2ccc(OC)cc2)cc1 (centres unmarked),6.85%
4,COc1cc2[nH]c(=S)nc(NCCc3ccc(S(N)(=O)=O)cc3)c2cc1OC,17.2%
5,COc1ccc(/C=N/NC(=O)c2ccc[nH]2)cc1,14.9%
6,Cc1ccccc1S(=O)Cc1ccc(C(=O)NCCCN2CCCCC2)o1 (centres unmarked),15%
7,CCCCN(CC)CCNC(=O)C1c2cc(OC)c(OC)cc2C(=O)N2CCc3ccccc3C12 (centres unmarked),3.99%
8,CC(C)(C)c1ccc(C(=O)NCC(=O)OCC(=O)Nc2nc(-c3ccc(F)cc3)cs2)cc1,11.3%
9,COc1ccc(/C=C/CN2CCN(CCc3ccccc3)C(CCO)C2)cc1 (centres unmarked),-61.7%
10,Cc1ccccc1NC(=O)CSc1nc(COc2ccccc2)nc2ccccc12,15.1%
11,Cc1cc(C)c(C(=O)/C=C/c2ccco2)c(=O)[nH]1,1.67%
12,CC(=O)c1nc(N2C(=O)CC(Cc3cc(C)cc(C)c3)C2=O)sc1C (centres unmarked),-0.0235%
13,O=C(CSc1nnc2c(n1)[nH]c1ccc(F)cc12)Nc1ccccc1F,16%
14,C=CCn1c(-c2c(C)nc3cc(C)ccn23)n[nH]c1=S,4.71%
15,Cc1cccc2c1cnn2C(=O)CCC(=O)NC1CCCCC1,10.5%
16,Cc1cc([N+](=O)[O-])ccc1NC(=O)c1csc(C)c1C,11%
17,Cc1ncc(C[n+]2csc(CCOC(=O)CC3C4CC5CC(C4)CC3C5)c2C)c(N)n1.Cl.[Cl-] (centres unmarked),-1.19%
18,O=C(c1ccc(N2CCOCC2)cc1)N1CCCC(Nc2ccccc2)C1 (centres unmarked),10.7%

# — PMC4336329 (PLoS ONE, 2015)
